{"source": "the RNAGym collection of RNA variant scans (doi:10.7554/elife.90254)", "parents": {"B1": {"name": "LINE1-mini (parent)", "chain": "GGCAGAGCUCAACACAGCGUGGCAAAGUGGCUGUGGCUAGACUGCC"}}, "note": "The source gives no read counts; variants with many changes may rest on few reads."}
{"variants_of": "B1", "experiment": "self-cleavage, relative activity (ratio to wild type); higher = more cleavage; in vitro, sequencing; the parent is a self-cleaving ribozyme"}
{"variant": "CGCAGAGCUCAACACAGCCUGGCAAAGUGGCUGUGGCCAGACUGCC", "self-cleavage": 0.02}
{"variant": "CGCAGAGCUCAACACAGCGUUGCAAAGUGGUUGUGGCUAGACUGCC", "self-cleavage": 0.06}
{"variant": "CGCAGAGCUCAACACAGCGUGGCAAAGUGGCGGUGGCUGGACUGCA", "self-cleavage": 0}
{"variant": "CGCAGAGCUCAACACAGCGUGGCAAAGUGGCGGUGGCUAGGCUGCC", "self-cleavage": 0.06}
{"variant": "UGCAGGUCUCUACACCGCGUGGCAAAGUGGCUGUGGCUAGACGGCC", "self-cleavage": 0}
{"variant": "CGCAGAGCUCAACACAGCGUGUCAAAGUGGCUGUCGGUAGACUGGC", "self-cleavage": 0.02}
{"variant": "UGCCGAGCUCGACACAGCGUGGCAAAGUGGCUGUAGCUAGACUGCC", "self-cleavage": 0.07}
{"variant": "CGCAUAGCUCAACACAGAGUGGCAAAGUGGCUGUAGCUAGACUGCG", "self-cleavage": 0.01}
{"variant": "CGCAGAUCUCAACACAGCGUGGCAAUGUGGCUGCGGCUAGACUGCG", "self-cleavage": 0.01}
{"variant": "UGCAGGGCUCAACGCAGCGUGGCAAAUUCGCUGUGGCUAGACUGCC", "self-cleavage": 0.02}
{"variant": "CGCAGAGCUCAACACAGCCUGGUAAAGUGGCUGUGGCUAGACUGCC", "self-cleavage": 0.06}
{"variant": "CGCAGAGCUCAACACAGCGCGGCAAAAUGUCUGAGGCUAGACUGCC", "self-cleavage": 0.04}
{"variant": "CGCAGAGCUCAACACAGCGUGGCAAAGUGGCUCUGGCCGGACUGCC", "self-cleavage": 0.01}
{"variant": "UGCUGAGCUCAAAACAGCGUGGGAAAGUGCCUGUGGCUAGACUGCC", "self-cleavage": 0.03}
{"variant": "CGCAGAGCUCAACACAGCGAAGCAUAGUGGCUGUGGCUAGACCGCC", "self-cleavage": 0.03}
{"variant": "UGCAGGGCUCGACACAGCGUGGCAAAGUGGCUGUGGCUAGACUGCC", "self-cleavage": 0.03}
{"variant": "UGCCGAGCUCAACACAGCGUGGCAAAGGGGCUGUGGCUAGACUGAC", "self-cleavage": 0.03}
{"variant": "CGCAGAGCUCAACACAGCGUGGCAAAGUGGCUCUAGCUAGACUCCC", "self-cleavage": 0.01}
{"variant": "CGCAGAGCUCAACACAGCGUGGCAAAGUGGCUCUGGCUAGGCUGCU", "self-cleavage": 0.02}
{"variant": "CGCAGAGCUCAACACAGCGUGGCAAAGUAGCUGUGGCUAUACUGCC", "self-cleavage": 0.01}
{"variant": "CGCAGAGCUCAACACAGCGUGGCAAAGUGGCAGUGGCUAUACUGCC", "self-cleavage": 0.03}
{"variant": "CGCAGAGCUCAACACAGCGUAGCAAAGUGGCUGUCGCUAGACUGCC", "self-cleavage": 0.04}
{"variant": "UGCAGCGCUCAACAGCGCGUGGCAAAGUGGCUGUGGCUAGACUGCC", "self-cleavage": 0.04}
{"variant": "CGCAGAUCUCAACACAGCGUGGCAGAGUGGCUGUGGCUAGACUGCC", "self-cleavage": 0.03}
{"variant": "CGCAGAGCGCAACACACCGUGGCAACGUGUCUGUGGCUAGACUGCG", "self-cleavage": 0}
{"variant": "CGCAGAGCUCAACACAUCGGGGCAACGUGGCGGUGGCUAGAAUGCC", "self-cleavage": 0.08}
{"variant": "UGCAGGGUUCAACACAGCGUGGCAAAGUGGCUGUGGCUAGACUGCC", "self-cleavage": 0.12}
{"variant": "CGCAGAGCUCAACACAGCGCGACAAAGUGGCUGUGGCUAGACUGCC", "self-cleavage": 0.04}
{"variant": "CGCAGAGCACAACACAGCGUGGCAAAGUGGCUGUGGCUAGACUGGC", "self-cleavage": 0.02}
{"variant": "CGCAGAGCUCAACACACCGCGGCAAAGUGGCUGUGGCUAGACUGCC", "self-cleavage": 0.05}
{"variant": "UGCUGAGCUCAACACAGCGUGGCAAAGUGGCUGUGCCUAGACUGCC", "self-cleavage": 0.09}
{"variant": "CGCAGAACUCAACACAGCGUGACAAAGUAGCUGUGGCUACACUGCC", "self-cleavage": 0.02}
{"variant": "CGCAGAGCUCAACACAGCGUGACAAAGUUGCCGUGGGUAGACUGCC", "self-cleavage": 0.02}
{"variant": "UGCAGCGCUCAACACAGCCUGGCAAAGUGGCUGUGGUUAGACUGCC", "self-cleavage": 0}
{"variant": "UGCCGAGCUCAAUACAGCGUGGCAAAGUGGCUUGGGCUAGACUGCC", "self-cleavage": 0.02}
{"variant": "CGCAGAACUCAACACAGCGUGGGAAAGUGGCUCUGGCUAGACUGCC", "self-cleavage": 0.06}
{"variant": "UGCUGAGCUCAACACAGCGUGGCAAAGUGGCUGUGACUCGACUGCC", "self-cleavage": 0.08}
{"variant": "CGCAGAGCACAACACAGCAUGGCAAAGUGUCUAUAGCUAGACUGCA", "self-cleavage": 0.04}
{"variant": "UGCUGAGCUCGACACAGCGUGGCAAAGUGGCUGUAGCUAGACUGCC", "self-cleavage": 0}
{"variant": "CGCAGAACUCAGCACAGCAUGGCAAAGUGCCUGUGGCUAGACUGCC", "self-cleavage": 0}
{"variant": "CGCAGAGCUCAACACAGCGUGGCAAAGAGGUUGUGGCUAGGCUGCC", "self-cleavage": 0.01}
{"variant": "CGCAUAGCUCAACACAGCGUGGCAAAGUUGCUGUGGCUAGACUGCA", "self-cleavage": 0.05}
{"variant": "CGCAGAGCUCAACACAGCGUGGCAAAGUUGCUGUGGCUACACUGCC", "self-cleavage": 0.04}
{"variant": "UGCGGAGCUCAACACAGCGUGGCAAACUGGCUCUGGCCAGACUGCC", "self-cleavage": 0.05}
{"variant": "CGCAGAGCACAACACAGAGUGGCAAACUGGAUAUGGCUAGACUGCC", "self-cleavage": 0.04}
{"variant": "CGCAGAACUCAACACAGCGUGGCAAAGUGGCUGUGACUAGACUGCC", "self-cleavage": 0.15}
{"variant": "CGCAGAGCACAACGCAGCGUGGCAAAGUGGCCGUGGCUUGACUGCC", "self-cleavage": 0}
{"variant": "CGCAGAUCUCAAUAAAGCGUGGCAAAGUGGCUGUGGCCAGACUGCC", "self-cleavage": 0.02}
{"variant": "UGCGUAGCUCAACACAGCGUGGCAAAGUGGCUGUGGCUAGACUGCC", "self-cleavage": 0.26}
{"variant": "CGCAGAGCUCAACACAGCGUGGCAAAGUGGCUGUAUCUAGACUGCC", "self-cleavage": 0.04}
{"variant": "CGCAGAGCUCAACACAGCGUUGCAAAGUGGCUGUGGCUAGACUGCA", "self-cleavage": 0.32}
{"variant": "CGCAGAGCUCAACACAGCGUUGCAAAGCGGCUGUGGCUAGACUGCC", "self-cleavage": 0.13}
{"variant": "CGCAGAGCUCAACACAGCGUCGCAAAGUGGGUGUGGCUAGACUGCC", "self-cleavage": 0.05}
{"variant": "UGCAGUGCUCAACUCAGCGUGGCAAAGUGGCUGUGGCUAGACUGCC", "self-cleavage": 0.18}
{"variant": "CGCAGAGCGCAACAUAGCGUGGCAAAGUGCCUGUGGCUAGAGUGCC", "self-cleavage": 0.01}
{"variant": "CGCAGACCUCAACACAGCGUGGCAAAGUGGCUCUGGCUAGACUGCC", "self-cleavage": 0.04}
